For 40 sequences, binding signal results are on record in article PMC12820563, “FoxP3 forms a head-to-head dimer in vivo and stabilizes its multimerization on adjacent microsatellites”.

The other results are listed elsewhere or left out.

The assay has as its target T1, MBP-FoxP1dN (Mus musculus, UniProt P58462 326-579).
T1 sequence: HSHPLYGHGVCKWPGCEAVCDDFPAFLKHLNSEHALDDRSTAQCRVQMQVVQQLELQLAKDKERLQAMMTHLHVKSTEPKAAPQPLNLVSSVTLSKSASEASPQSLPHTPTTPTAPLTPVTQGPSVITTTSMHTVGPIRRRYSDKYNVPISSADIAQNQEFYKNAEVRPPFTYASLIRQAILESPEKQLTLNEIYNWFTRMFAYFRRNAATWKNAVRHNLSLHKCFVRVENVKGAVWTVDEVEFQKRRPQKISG
Briefly: PD-seq (MBP pull-down with sequencing); 20 mM Tris-HCl pH 7.5, 100 mM NaCl, 1.5 mM MgCl2, 0.4 uM protein, 0.1 uM dsDNA library, 30 min, room temperature, amylose pull-down; high values mean tight binding. Conditions: protein: recombinant; tags: His6-MBP; chain copies: 2; dsDNA, one strand shown. A digest of the protocol:
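Amylose resin was used to capture complexes formed during 30 min at room temperature in Tris pH 7.5 buffer with NaCl and MgCl2 between 0.4 µM His6-MBP-tagged mouse FoxP3 or FoxP1 fragment lacking the N-terminus, expressed in E. coli, and 0.1 µM Klenow-filled double-stranded degenerate DNA library. After three washes, the DNA was released with proteinase K, barcoded by PCR and sequenced on Illumina. Binding is pooled-replicate reads-per-million enrichment, pull-down over input.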
For the sequence “GATGATTGTTCTCCCAGCTGATGAATTATTCCCCTCGAGTAAACAAATTTTCCTAATCTTTCTGTTCAAGCGCCATCTAC”, the binding signal was 0.896 RPM ratio (pull-down/input).
As for “GATGATTGTTCTCCCAGCTGATGAATTTCCCAGTTCGAGTAAACAAATTTTCCTAATCTTTCTGTTCAAGCGCCATCTAC”, the binding signal was 0.864 RPM ratio (pull-down/input).
The result for “GATGATTGTTCTCCCAGCTGATGAATTCGGTCGTTCGAGTAAACAAATTTTCCTAATCTTTCTGTTCAAGCGCCATCTAC” reads 0.868 RPM ratio (pull-down/input); that for “GATGATTGTTCTCCCAGCTGATGAATTGGCGATCTCGAGTAAACAAATTTTCCTAATCTTTCTGTTCAAGCGCCATCTAC”, 0.778 RPM ratio (pull-down/input).
As for “GATGATTGTTCTCCCAGCTGATGAATTGGTTGAATCGAGTAAACAAATTTTCCTAATCTTTCTGTTCAAGCGCCATCTAC”, the figure is 1.01 RPM ratio (pull-down/input); as for “GATGATTGTTCTCCCAGCTGATGAATTCTACAACTCGAGTAAACAAATTTTCCTAATCTTTCTGTTCAAGCGCCATCTAC”, 0.871 RPM ratio (pull-down/input).
For “GATGATTGTTCTCCCAGCTGATGAATTTATGGGGTCGAGTAAACAAATTTTCCTAATCTTTCTGTTCAAGCGCCATCTAC”, the binding signal was 0.971 RPM ratio (pull-down/input).
For the sequence “GATGATTGTTCTCCCAGCTGATGAATTTGTAATCTCGAGTAAACAAATTTTCCTAATCTTTCTGTTCAAGCGCCATCTAC”, the binding signal was 1.23 RPM ratio (pull-down/input).
For “GATGATTGTTCTCCCAGCTGATGAATTTTCACGATCGAGTAAACAAATTTTCCTAATCTTTCTGTTCAAGCGCCATCTAC”, the binding signal was 0.874 RPM ratio (pull-down/input).
The result for “GATGATTGTTCTCCCAGCTGATGAATTGCACTTGTCGAGTAAACAAATTTTCCTAATCTTTCTGTTCAAGCGCCATCTAC” reads 1.19 RPM ratio (pull-down/input); that for “GATGATTGTTCTCCCAGCTGATGAATTTCGCCACTCGAGTAAACAAATTTTCCTAATCTTTCTGTTCAAGCGCCATCTAC”, 0.882 RPM ratio (pull-down/input); that for “GATGATTGTTCTCCCAGCTGATGAATTCGATCTTTCGAGTAAACAAATTTTCCTAATCTTTCTGTTCAAGCGCCATCTAC”, 0.775 RPM ratio (pull-down/input).
As for “GATGATTGTTCTCCCAGCTGATGAATTCTATTTTTCGAGTAAACAAATTTTCCTAATCTTTCTGTTCAAGCGCCATCTAC”, the figure is 1.61 RPM ratio (pull-down/input).
As for “GATGATTGTTCTCCCAGCTGATGAATTAACGTACTCGAGTAAACAAATTTTCCTAATCTTTCTGTTCAAGCGCCATCTAC”, the figure is 0.897 RPM ratio (pull-down/input); as for “GATGATTGTTCTCCCAGCTGATGAATTCCCTGAATCGAGTAAACAAATTTTCCTAATCTTTCTGTTCAAGCGCCATCTAC”, 0.844 RPM ratio (pull-down/input); as for “GATGATTGTTCTCCCAGCTGATGAATTAGCCGTATCGAGTAAACAAATTTTCCTAATCTTTCTGTTCAAGCGCCATCTAC”, 0.934 RPM ratio (pull-down/input).
Consider “GATGATTGTTCTCCCAGCTGATGAATTATTGTGCTCGAGTAAACAAATTTTCCTAATCTTTCTGTTCAAGCGCCATCTAC”, for which the binding signal is 1.52 RPM ratio (pull-down/input).
The result for “GATGATTGTTCTCCCAGCTGATGAATTTGCTCGCTCGAGTAAACAAATTTTCCTAATCTTTCTGTTCAAGCGCCATCTAC” reads 0.816 RPM ratio (pull-down/input).
In the case of “GATGATTGTTCTCCCAGCTGATGAATTTCACTCTTCGAGTAAACAAATTTTCCTAATCTTTCTGTTCAAGCGCCATCTAC”, the binding signal was 0.814 RPM ratio (pull-down/input).
As for “GATGATTGTTCTCCCAGCTGATGAATTGTCCTGGTCGAGTAAACAAATTTTCCTAATCTTTCTGTTCAAGCGCCATCTAC”, the binding signal was 0.988 RPM ratio (pull-down/input).
As for “GATGATTGTTCTCCCAGCTGATGAATTTCTTATTTCGAGTAAACAAATTTTCCTAATCTTTCTGTTCAAGCGCCATCTAC”, the figure is 1.07 RPM ratio (pull-down/input); as for “GATGATTGTTCTCCCAGCTGATGAATTGGCGTCTTCGAGTAAACAAATTTTCCTAATCTTTCTGTTCAAGCGCCATCTAC”, 0.91 RPM ratio (pull-down/input).
The result for “GATGATTGTTCTCCCAGCTGATGAATTCCTTCATTCGAGTAAACAAATTTTCCTAATCTTTCTGTTCAAGCGCCATCTAC” reads 0.85 RPM ratio (pull-down/input); that for “GATGATTGTTCTCCCAGCTGATGAATTTAGATCCTCGAGTAAACAAATTTTCCTAATCTTTCTGTTCAAGCGCCATCTAC”, 0.952 RPM ratio (pull-down/input).
“GATGATTGTTCTCCCAGCTGATGAATTATATAGCTCGAGTAAACAAATTTTCCTAATCTTTCTGTTCAAGCGCCATCTAC”: the binding signal is 0.971 RPM ratio (pull-down/input).
The result for “GATGATTGTTCTCCCAGCTGATGAATTTGAATTTTCGAGTAAACAAATTTTCCTAATCTTTCTGTTCAAGCGCCATCTAC” reads 0.948 RPM ratio (pull-down/input).
Consider “GATGATTGTTCTCCCAGCTGATGAATTTATAGGATCGAGTAAACAAATTTTCCTAATCTTTCTGTTCAAGCGCCATCTAC”, for which the binding signal is 1.08 RPM ratio (pull-down/input).
As to “GATGATTGTTCTCCCAGCTGATGAATTTACGCCATCGAGTAAACAAATTTTCCTAATCTTTCTGTTCAAGCGCCATCTAC”, the binding signal was 1.21 RPM ratio (pull-down/input).
Take “GATGATTGTTCTCCCAGCTGATGAATTTTGTCTATCGAGTAAACAAATTTTCCTAATCTTTCTGTTCAAGCGCCATCTAC”: the binding signal was 1.36 RPM ratio (pull-down/input).
In the case of “GATGATTGTTCTCCCAGCTGATGAATTCTGGGAGTCGAGTAAACAAATTTTCCTAATCTTTCTGTTCAAGCGCCATCTAC”, the binding signal was 0.797 RPM ratio (pull-down/input).
On to “GATGATTGTTCTCCCAGCTGATGAATTTCGTTGCTCGAGTAAACAAATTTTCCTAATCTTTCTGTTCAAGCGCCATCTAC”, for which the binding signal is 0.942 RPM ratio (pull-down/input).
As for “GATGATTGTTCTCCCAGCTGATGAATTGTCGACCTCGAGTAAACAAATTTTCCTAATCTTTCTGTTCAAGCGCCATCTAC”, the figure is 0.877 RPM ratio (pull-down/input); as for “GATGATTGTTCTCCCAGCTGATGAATTCGGGAGATCGAGTAAACAAATTTTCCTAATCTTTCTGTTCAAGCGCCATCTAC”, 0.825 RPM ratio (pull-down/input); as for “GATGATTGTTCTCCCAGCTGATGAATTGCTGAATTCGAGTAAACAAATTTTCCTAATCTTTCTGTTCAAGCGCCATCTAC”, 1.05 RPM ratio (pull-down/input).
In the case of “GATGATTGTTCTCCCAGCTGATGAATTAAGTCCGTCGAGTAAACAAATTTTCCTAATCTTTCTGTTCAAGCGCCATCTAC”, the binding signal was 0.896 RPM ratio (pull-down/input).
As to “GATGATTGTTCTCCCAGCTGATGAATTGATAGAGTCGAGTAAACAAATTTTCCTAATCTTTCTGTTCAAGCGCCATCTAC”, the binding signal was 0.901 RPM ratio (pull-down/input).
Regarding “GATGATTGTTCTCCCAGCTGATGAATTGGTATGCTCGAGTAAACAAATTTTCCTAATCTTTCTGTTCAAGCGCCATCTAC”, the binding signal was 1.03 RPM ratio (pull-down/input).
As for “GATGATTGTTCTCCCAGCTGATGAATTTGTAGGATCGAGTAAACAAATTTTCCTAATCTTTCTGTTCAAGCGCCATCTAC”, the binding signal was 1.02 RPM ratio (pull-down/input).
With “GATGATTGTTCTCCCAGCTGATGAATTACAATGCTCGAGTAAACAAATTTTCCTAATCTTTCTGTTCAAGCGCCATCTAC”, the binding signal is 1.43 RPM ratio (pull-down/input).
Consider “GATGATTGTTCTCCCAGCTGATGAATTTGTTGCATCGAGTAAACAAATTTTCCTAATCTTTCTGTTCAAGCGCCATCTAC”, for which the binding signal was 1.84 RPM ratio (pull-down/input).
